Out of some 52,000 compounds screened, about 1,700 (3.3%) were called active. Cut-off read from the data, not from the text of the source: active = survival mostly below about 52% (no sharp cut-off); inactive = mostly above about 56%. This is one part of the list.

58 molecules from PubChem BioAssay AID463173 (ICCB-Longwood Screening Facility, Harvard Medical School, 2010) can be followed below.

The experiment concerns Wild type. In words: growth inhibition of S. aureus wild type versus tarO mutant, primary screen, teichoic acid synthesis inhibitors, RN4220, OD600 (AID 463173). The conditions noted are these: S. aureus RN4220 wild type/DeltatarO growth, OD600, 18 h, active compounds read low, screened at 18.75 µg/mL (by protocol).
With `Cc1cc(NC(=O)c2cnn(-c3ccccc3)c2-n2cccc2)ccc1Br`, the survival is inactive: 52%.

As to `COc1ccc(-c2csc3ncnc(Nc4ccc(OC)cc4OC)c23)cc1`, the survival is inactive: 75%. Consider `COc1cccc(-c2nc3c(C#N)c[nH]n3c2NC2CCCCC2)c1`, for which the survival was inactive: 87%. As for `CCc1cccc(NC(=O)Cn2c(=O)n(CC3CCC(C(=O)NC)CC3)c(=O)c3sccc32)c1` (stereo not drawn), the figure is inactive: 84%. As for `COc1cccc(CNC(=O)CN(c2ccc(C)cc2)S(=O)(=O)N(C)C)c1OC`, the figure is inactive: 79%; as for `Cc1cccc(N(C)C(=O)C2CCC(CNS(=O)(=O)c3cccc4nsnc34)CC2)c1` (stereo not drawn), inactive: 84%; as for `COc1cccc(CNC(=O)Cn2c(=O)cc(C)c3c(C)nn(C)c32)c1OC`, inactive: 69%. Regarding `N#CC1=C(N)N(c2ccc(Cl)cc2)C2=C(C(=O)CCC2)C1c1cc(CN2CCOCC2)cs1` (stereo not drawn), the survival was inactive: 77%.

For the molecule `COc1cc(NS(=O)(=O)c2cc(Br)cc3c2N(C(C)=O)C(C)C3)cc(OC)c1` (stereo not drawn), the survival is active: -3%. As for `O=C(NC1CCCCC1)c1ccc2c(c1)N(Cc1ccc(F)cc1)C(=O)c1ccccc1S2(=O)=O`, the figure is inactive: 141%; as for `CCOC(=O)CSc1nnc(-c2ccc(OC)cc2)o1`, inactive: 72%; as for `COc1cc(C(=O)Nc2cc(C)c(O)c(-c3nc4cc(Cl)ccc4o3)c2)cc(OC)c1OC`, inactive: 77%. The result for `CCN(CC)C(=O)c1sc2c(c1C)c(=O)n(-c1ccccc1)c(=O)n2CC(=O)N(CC)c1cccc(C)c1` reads inactive: 68%. For `Cc1cn2c(=O)cc(COC(=O)COc3ccc(C)c(C)c3)nc2s1`, the survival was inactive: 63%. The result for `O=C(c1ccccc1)N1CCC(c2nc3ccccc3[nH]2)CC1` reads inactive: 129%. With `CCCOc1ccc(C(=O)N(Cc2ccc(Cl)cc2)Cc2ccco2)cc1`, the survival is inactive: 77%. The result for `CN(C(=O)CSc1nncn2c1cc1occc12)c1ccccc1` reads inactive: 87%; that for `COc1ccc(CCCN=C(N)N)cc1Cl`, inactive: 119%. As for `CCCCN(C)C(=O)CN1C(=O)c2cccnc2Oc2ccc(Cl)cc21`, the figure is inactive: 68%; as for `Cc1ccc(CNC(=O)c2ccc3c(c2)NC(=O)C(CS(=O)(=O)Cc2cccc(C)c2)N3)cc1` (stereo not drawn), inactive: 131%; as for `COc1cc(NC(=O)CCS(=O)(=O)c2ccc(Br)cc2)cc(OC)c1`, inactive: 66%. The result for `COc1ccc(Cn2ccn(CC(=O)Nc3cc(C)ccc3C)c(=O)c2=O)cc1` reads inactive: 86%; that for `CC(C)c1ccc(-c2noc(SCC(=O)N3CCN(c4ccccc4F)CC3)n2)cc1`, inactive: 73%. `Cn1c(CNC(=O)CSc2nc(-c3ccccc3F)nc3cc(=O)[nH]n23)nc2ccccc21`: the survival is inactive: 71%. The result for `O=C(NCc1cccs1)c1ccc2c(c1)sc1nc(-c3ccccc3)cn12` reads inactive: 98%; that for `Cc1ccc(NC(=O)Cn2c(=O)ccc3cc(S(=O)(=O)N4CCCC4)ccc32)cc1C`, inactive: 88%. The result for `Cc1c(C(=O)N2CCC(C(=O)Nc3ccc(F)c(Cl)c3)CC2)sc2nc[nH]c(=O)c12` reads inactive: 89%; that for `COc1cc(CN(C(=O)c2ccccc2)c2ccccn2)cc(OC)c1OC`, inactive: 82%; that for `Cc1cc2nn(-c3ccc(F)cc3)nc2cc1NC(=O)c1ccc(C(C)(C)C)cc1`, inactive: 69%. As for `CCCOc1ccc(C2C(=O)N(C3CCCCCC3)CC(=O)N2C(C)C)cc1OC` (stereo not drawn), the figure is inactive: 80%; as for `O=C(CC(c1ccccc1)c1cc(Br)ccc1O)NCCN1CCOCC1` (stereo not drawn), inactive: 96%. Take `O=C(Nc1ccc2nn(-c3ccccc3)nc2c1)c1ccccc1`: the survival is inactive: 125%. `CCOC(=O)/C(C#N)=C1\C(=O)Nc2ccccc21`: the survival was inactive: 105%.

As for `COc1ccc(-c2cn3cccnc3n2)cc1NC(=O)c1ccccc1C(F)(F)F`, the survival was inactive: 69%. As to `COc1ccc2c(c1)c(=O)c(C(=O)c1ccc(F)cc1)cn2CC(=O)Nc1ccc2c(c1)OCCO2`, the survival is inactive: 75%. As for `O=C(Cc1ccccc1)Nc1ccc2oc(-c3ccc(Br)cc3)nc2c1`, the figure is inactive: 99%; as for `COc1ccc(-c2oc3ncn4nc(-c5ccccc5OC)nc4c3c2-c2ccc(OC)cc2)cc1`, inactive: 124%. As for `CC(C)(C)CC(C)(C)N=C1NS(=O)(=O)c2ccccc21`, the figure is inactive: 112%; as for `COc1cccc(CNC(=O)Nc2cn(CC(C)C)c(=O)c3ccccc23)c1`, inactive: 83%. As for `Cc1nc(N2CCCC2)ncc1C(=O)Nc1ccc(OC(F)(F)F)cc1`, the figure is inactive: 83%.

In the case of `COc1ccc(OCc2ccc(-c3nc(C#N)c(NCc4ccc(F)cc4)o3)o2)cc1`, the survival is inactive: 80%. With `CCOc1ccc(-n2c(-c3ccc(Br)cc3)cc3c2CC(C)(C)CC3=O)cc1`, the survival is active: 8%.

On to `CCOC(=O)c1cc(-c2ccc(F)cc2)n(CCC(=O)Nc2nc3cc(C)c(C)cc3s2)c1C`, for which the survival is inactive: 77%. As for `Cc1nnc2c3ccccc3nc(Nc3ccc(F)cc3Cl)n12`, the figure is inactive: 88%; as for `Cc1ccc2c(CC(=O)Nc3nnc(C(C)C)s3)coc2c1C`, inactive: 114%. The result for `COc1cc(OC)cc(-n2c(=O)c3sccc3n(Cc3cc(=O)n4c(C)cccc4n3)c2=O)c1` reads inactive: 148%; that for `OCCN1CCN(c2ncnc3c2cnn3-c2cccc(Cl)c2)CC1`, inactive: 90%; that for `Cc1cccc(N(C)S(=O)(=O)c2nnc(NC(=O)C(C)(C)C)s2)c1`, inactive: 99%. As for `Cc1ccc(Cl)cc1NC(=O)Cn1nnc2sc3c(c2c1=O)CCC(C(C)(C)C)C3` (stereo not drawn), the figure is inactive: 85%; as for `COc1ccc(CCNc2ncnc3c2cnn3-c2ccc(F)cc2)cc1`, inactive: 55%.

As to `N#Cc1c(SCC(N)=O)nsc1SCC(N)=O`, the survival is inactive: 110%. The result for `N#CCNC(=O)c1sc2ccccc2c1Cl` reads inactive: 107%. `Brc1ccc(CN2CCc3nc(Nc4ccccc4)ncc3C2)s1`: the survival is inactive: 117%. The result for `O=C(c1ccc2c(c1)N(Cc1ccccc1F)C(=O)c1ccccc1S2=O)N1CCC(Cc2ccccc2)CC1` (stereo not drawn) reads inactive: 98%; that for `COc1ccc(OC)c(CNC(=O)c2cc3c(=O)oc4ccc(C)cc4c3s2)c1`, inactive: 88%; that for `COc1ccc(N(Cc2cc3cc(OC)ccc3[nH]c2=O)C(=O)c2cccc(Cl)c2)cc1`, inactive: 87%. As for `CC(C)C(c1nnnn1C1CCCC1)N1CCc2ccccc21` (stereo not drawn), the survival is inactive: 104%.

As to `O=C(CS(=O)(=O)c1nc(-c2ccc(Cl)cc2)cn1-c1ccccc1)Nc1cccc(Cl)c1`, the survival was inactive: 103%.
